Read counts are not given, so values of variants with three or more changes are uncertain.
B1: LINE1-full (parent)
chain: UACGUAGGUGGUUUUCCCCUGAUAGUGCUAAGGGGGCCUGGAAGUUUGGACUGGGCAGAGCUCAACACAGCGUGGCAAAGUGGCUGUGGCUAGACUGCCUCUCUGGAUUCCUCGUCACUCAGCAGGGCAUCUCUGAGAGAAAUGCC

Variants of: B1
Test: self-cleavage, relative activity (ratio to wild type); higher = more cleavage; in vitro, sequencing; the parent is a self-cleaving ribozyme

Question: With AACGUAGGUGGUUUUCCCCUGAUAGUGCUAAGGGGGCCUGGAAGUUUGGACUGGGCAGAGCUCAACACAGCGUGGCAGAGUGGCUGUGGCUAGACUGCCUCUCUGGAUUCCUCGUCACUCAGCAGGGCAUCUCCGAGAGAAAUGCC [U1A A78G U134C] as the variant, how does the self-cleavage read?
Answer: 0

Question: With AACGUUGGUGGUUUUCCCCUGAUAGUGCUAAGGGGGCCUGGAAGUUUGGACUGGGCGGAGCUCAACACAGCGUGGCAAAGUGGCUGUGGCUAGACUGCCUCUCUGGAUUCCUCGUCACUCGGCAGGGCAUCUCUGAGAGAAAUGCC [U1A A6U A57G A121G] as the variant, how does the self-cleavage read?
Answer: 0

Question: Which self-cleavage does the source give for AACGUUGGUGGUUUUCCCCUGAUAGUGCUAAGGGGGCCUGGAAGUUUGGACAGGGCAGAGCUCAACACAGCGUGGCAAAGUGGCUGUGGCUAGACUGCCUCUCUGGAUUCCUCGUCACUCAGCAGGGCAUCACUGGGAGGAAUGCC [U1A A6U U52A U132A A136G A140G] here?
Answer: 1.52

Question: With AACGUAGGUGGUUUUCCCCUGAUAGUGCUAAGGGGGCCUGGAAGUUUGGACUGGGCAGAGCUCAACACUGCGUGGCAAAGUGGCUGUGGCUAGACUGCCUCUCUGGAUUCCACGUCACUCAGCAGGGCAUCUCUGAGAGAAAUGCC [U1A A69U U112A] as the variant, how does the self-cleavage read?
Answer: 0.04

Question: For AACGUAGGUGGUUUUCUCCUGAUAGCGCUAAGGGGGCCUGGAAGUUUGGACUGGGCAGAGCUCAACACAGCGUGGCAAAGUGGCUGUGGCUGGACUGCCUCACUGGAUUCCUCGUCACUCAGCAGGGCUUCUCUGAGAGAAAUGCC [U1A C17U U26C A92G U102A A129U], which self-cleavage is on record?
Answer: 0.32

Question: With AAUGUAGGUGGUUUUCCCCUGAUAGUGCUAAGGGGGCCUGGAAGUUUGGACUGGGCGGAGCUCAACACAGCGUGGCAAAGUGGCUGUGGCUAGACUGCCUCUCUGGAUUCCUCGUCACUCAGCAGGGCAUCUCUGAGAGAAAUGCC [U1A C3U A57G] as the variant, how does the self-cleavage read?
Answer: 1.08

Question: With AACGUAGGCGGUUUUCCCCUGAUAGUGCUAAGGGGGCCUGGAAGUUUGGACUGGGCAGAGCUCAACACAGCGUGGCAAAGUGGCUGUGGCUAGACUGCCUCUCUGGAAUCCUCGUCGCUCAGCAGGGCAUCUCUGAGAGAAAUGCC [U1A U9C U108A A117G] as the variant, how does the self-cleavage read?
Answer: 1.41

Question: For AACGUAGGUGGUUUUCCCCUGAUGGUGCUAAGGGGGCCUGGGAGUUUGGACUGGGCAGAGCUCAACACAGCGUGGCAAAGUGGCUGUGGCUAGACUGCCUCUCUGGAUUCCUCGUCACUCAGCAGGGCAUCUCUGAGAGAAAUGCC [U1A A24G A42G], which self-cleavage is on record?
Answer: 0.33

Question: With AACGUAGGUGGUUUUCCUCUGAUAGUGCUAAGGGGGCUUGGAAGUUUGGACUGGGCAGAGCUCAACACAGCGUGGCAAAGCGGCUGUGGCUAGACUGCCUCUCUGGAUUCCUCGUCACUCAGCAGGGCAUCUCUGAGAGAAAUGCC [U1A C18U C38U U81C] as the variant, how does the self-cleavage read?
Answer: 1.27

Question: Which self-cleavage does the source give for AACGAAGGUGGUUUUCCCCUGAUAGUGCUAAGGGGGCCUGGAAGUUUGGACUGGGCAGAGCGCAACGCAGUGUGGCUAAGUGGCUGUGGCUAGACUGCCACUCUGGAUUCCGCGUCACUCAGCAGGGCAUCUCUGAGAGAAAUGCC [U1A U5A U62G A67G C71U A77U U100A U112G] here?
Answer: 0

Question: With AACGUAGGUGGUUUUCCCCUGAUAGUGCUAAGGGGGCCUGGAAGUUUGGACUGGGCAGAGCUCAACACGGCGUGGCAAAGUGGCUGUGGCUAGACUGCCUCUCUGGAUUCCUCGUCACUCAGCUGGGCAUCUCUGAGAGAAAUGCC [U1A A69G A124U] as the variant, how does the self-cleavage read?
Answer: 0.63

Question: Which self-cleavage does the source give for AGCGUAGGUGGUUUUCCCCUGAUAGUGCUAAGGGGGCCCGGAAGUUUGGACUGGGCAGAGCUCAACGCAGCGUGGCAAAGCGGCUGUAGCUAGACUGCCUCUCUGGAUUCCUCGUCACUCAGCAGGGCAUCUCUGAGAGAAAUGCC [U1A A2G U39C A67G U81C G88A] here?
Answer: 1.53

Question: With AACGUAGGCGGUUUUCCCCUGAUAGUGCUAAGGGGGCCUGGGAGUUUGGACUGGGCAGAGCUCAACACAGCGUGGCAAAGAGGCUGUGGCUAUACUGCCUCUCUGGAUUCCUCGUCACUCAGCAGGGCAUCUCUGAGAGAAAUGCC [U1A U9C A42G U81A G93U] as the variant, how does the self-cleavage read?
Answer: 0.16

Question: With AACGUAGGUGGUUUUCCCCUGAUAGUGCUAGGGGGGCCUGGAAGUUUGGACUGUGCAGAGCUCAGCACAGCGUGGCAAAGUGGCUGUGGCUAGACUGCCUCUCUGGAUUCCUCGUCACUCGGCAGGGCAUCUCUGAGAGAAAUGCC [U1A A31G G54U A65G A121G] as the variant, how does the self-cleavage read?
Answer: 0.43

Question: Which self-cleavage does the source give for AACGUAGGUGGUUUUCCCCUGAUAGUGCUAAGGGGGCCUGGAAGUUUGGACUGGGCAGAACUCAACACAGCGUGGCAGAGUGGCUGUGGCUAGACUGCCUCUCUGGAUUCCUCGUCACUCAGCAGGGCUCCUCUGAGAGAAAUGCC [U1A G60A A78G A129U U130C] here?
Answer: 0.08

Question: With AACGUAGGUGGUUUUCCCCUGAUAGUGCUAAGGGGGCCAGGAAGUUUGGACUGGGCAGAGCUCAGCACAGCGAGGCAAAGUGGCUGAGGCUAGACUGCCUCUCUGGAUUCCUCGUCACUCAGCAGGGCAUCUCUGAGAGAAACGCC [U1A U39A A65G U73A U87A U143C] as the variant, how does the self-cleavage read?
Answer: 0.15

Question: Which self-cleavage does the source give for AACGUAGGUGGUUUUCCCCUGAUAGUGCUAAGGGGGCCUGGAAGUUUGGACUGGGCAGUGCCCAACACAGCGUGGCAAAGUGGCUGUGGCUAGACUGCCUCUCUGGAUUCCUCGUCACUCAGCGGGGCAUCUCUGAGAGAAAUGCC [U1A A59U U62C A124G] here?
Answer: 0

Question: Which self-cleavage does the source give for AACGUAGGUGGCUUUCCCCUGAUAGUGCUACGGGGGCCUGGAAGUUUGGACUGGGCAGAGCUCAACACAGCGUGGCAAAGUGGCUGUGGCUAGACUGCCUCUCUGGAUUCCUCGUCACUCAGCAGGGCAUCCCUGAGGGAAAUGCC [U1A U12C A31C U132C A138G] here?
Answer: 1.78

Question: For AACGUAGGUGGUUUUCCCCUGAUAGUGCUAAGGGAGCCUGGAAGUUUGGACUGGGCAGAGCUCAACACAGCGUGGCAAAGUGGCUGUGGCUAGACUGCCUCUCUGGAUUCCUCGUCACUCAGCAGGGCAUCUCUGAGAGAAAGGCC [U1A G35A U143G], which self-cleavage is on record?
Answer: 0.93
